Data taken from PubChem BioAssay (NCATS).
The shares of active, inactive and inconclusive entries below differ from those in the screen. Potencies of inconclusive entries are doubtful fits and often do not repeat. Calls of active or inactive are those of the source. Calls come from the whole dose curve; as a rule, active = well fitted curve in the direction sought with a large enough effect; inconclusive = small, poorly fitted or top-dose-only effect, or another doubt; inactive = no such curve, though single readings can be large; an effect the other way counts as inactive or inconclusive.

Assay: qHTS to identify inhibitors of the type 1 interferon - major histocompatibility complex class I in skeletal muscle: primary screen against the NCATS Pharmaceutical Collection (AID 1347407);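 note: luminescence of HiBiT knocked into endogenous HLA-B as interferon-induced MHC class I level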
Conditions: human skeletal muscle cells, IFN-b-induced MHC-I HiBiT luminescence, 24 h; series mostly up to 45.9 µM; activity change, negative = inhibition: at the top concentration
Method in brief: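 Cells were seeded with 4 ng/ml IFN-beta, incubated 1 h, then dosed with compounds over eight 1:5 steps up to 46 uM final. After 24 h at 37 C, HiBiT lytic reagent was added and luminescence read after 10 min lysis in the dark.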
Potency is the fitted concentration of half-maximal effect; tags give direction and shape of the fitted curve.

Row | Structure (SMILES) | Potency
1 | CCCCCCCCCCCCCCCC[N+](C)(C)CCN(Cc1ccc(OC)cc1)c1ncccn1 | inconclusive: 33.3 µM [inhibitor, single point]
2 | COc1cccc2c1C(=O)c1c(O)c3c(c(O)c1C2=O)C[C@@](O)(C(C)=O)C[C@@H]3O[C@H]1C[C@H](N)[C@H](O)[C@H](C)O1 | active: 3.33 µM
3 | NC(=NCCCCCCN=C(N)/N=C(\N)Nc1ccc(Cl)cc1)/N=C(\N)Nc1ccc(Cl)cc1 | inconclusive: 33.3 µM [inhibitor, single point]

Assay: qHTS to identify inhibitors of the type 1 interferon - major histocompatibility complex class I in skeletal muscle: primary screen against the NCATS Mechanism Interrogation Plate v5.0 (MIPE) Libary (AID 1347411); note: nearly all actives have a fitted effect of over 65% in size;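 for activity change, negative = inhibition: plate controls were vehicle for no effect and reference inhibitor for full effect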
Conditions: iHSKM cells + IFN-b, HiBiT-tagged MHC-I luminescence, 24 h; activity change, negative = inhibition: at 45.8 µM (top of the series)
Method in brief: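 IFN-beta-driven (4 ng/ml) HLA-B-HiBit expression in CRISPR-tagged C25cl48 myoblasts; compounds 11-pt, 1:3, max 46 uM, 24 hr exposure; lytic NanoLuc complementation luminescence.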

Row | Structure (SMILES) | Potency | activity change, negative = inhibition
4 | CC(C)Oc1cc(Nc2nc(N[C@@H](C)c3ccc(F)cn3)ncc2Cl)[nH]n1 | active: 1.65 µM | 
5 | CC[C@H](C)n1cc(C)c2c(C(=O)NCc3c(C)cc(C)[nH]c3=O)cc(-c3ccc(N4CCNCC4)nc3)cc21 |  | inactive: -24.8%
6 | CN1CCC(COc2cnc(-c3cccc(Cn4nc(-c5cccc(C#N)c5)ccc4=O)c3)nc2)CC1 |  | inactive: -11.8%
7 | Cc1cc([C@@H](C)Nc2ccccc2C(=O)O)c2nc(N3CCOCC3)cc(=O)n2c1 |  | inactive: -18.2%
8 | Cc1ccc(NC(=O)c2cccc(N(C)C)c2)cc1NC(=O)c1ccc(O)cc1 | inconclusive: 18.6 µM [inhibitor, partial curve] | 
9 | Cc1nc2cnc3ccc(C#Cc4cccnc4)cc3c2n1-c1ccc(C(C)(C)C#N)cc1 | active: 14.7 µM | 
10 | COc1ccc(C2CNC(=O)C2)cc1OC1CCCC1 (stereo unspecified) |  | inactive: 15.5%
11 | COc1ccc(-c2cc3c(C)nc(N)nc3n(C3CCC(OCCO)CC3)c2=O)cn1 (stereo unspecified) | inconclusive: 0.117 µM [inhibitor, full curve] | 
12 | O=C(O)C[C@H](O)C[C@H](O)/C=C/c1c(C2CC2)nc2ccccc2c1-c1ccc(F)cc1 |  | inactive: -13.2%
13 | COC(=O)c1ccc2c(C(=Nc3ccc(N(C)C(=O)CN4CCN(C)CC4)cc3)c3ccccc3)c(O)[nH]c2c1 | active: 16.5 µM | 
14 | COc1cccc(OC)c1-c1cc(C(=O)NC2(C(=O)O)C3CC4CC(C3)CC2C4)nn1-c1ccnc2cc(Cl)ccc12 (stereo unspecified) |  | inactive: 13%
15 | NC(=O)Nc1cc(-c2ccc(CN3CCOCC3)cc2)sc1C(N)=O | active: 7.39 µM | 
16 | CCC[C@H](Nc1nc(-c2ccc(NC(=O)NCC)c(OC)c2)ncc1C)c1cccnc1 | inconclusive: 0.131 µM [inhibitor, full curve] | 
17 | Cc1nn(Cc2ccccc2Cl)c(C)c1CN(C)CC(O)COc1ccc(Cl)cc1 (stereo unspecified) | inconclusive: 41.5 µM [inhibitor, single point] | 
18 | CC(=O)OC[C@@H]1O[C@@H](n2ccc(=O)[nH]c2=O)[C@H](OC(C)=O)[C@H]1OC(C)=O |  | inactive: -1.99%
19 | Oc1cc2c(cc1O)C1c3ccc(O)c(O)c3OCC1(O)C2 (stereo unspecified) | inconclusive: 41.5 µM [inhibitor, single point] | 
20 | COc1cc2c(Oc3ccc4[nH]c(C)cc4c3F)ncnc2cc1OCCCN1CCCC1 | active: 20.8 µM | 

Row | Structure (SMILES) | Potency | activity change, negative = inhibition
21 | Cc1ccc(S(=O)(=O)Nc2cc(Cl)ccc2C(=O)Nc2nc(-c3ccccc3)cs2)cc1 | inconclusive: 16.5 µM [inhibitor, partial curve, poor fit] | 
22 | CC(C)c1cnn2c(NCc3ccccc3)cc(NCCCCCCN)nc12 | active: 26.2 µM | 
23 | CC(C)c1cnn2c(NCc3ccccc3)cc(N[C@@H](CO)[C@H](O)CO)nc12 | active: 0.186 µM | 
24 | CC(C)(O)CC(=O)NCCn1ccc2ncnc(Nc3ccc(Oc4cccc(C(F)(F)F)c4)c(Cl)c3)c21 | inconclusive: 26.2 µM [inhibitor, partial curve, poor fit] | 
25 | CC[C@@H]1C(=O)N(C)c2cnc(Nc3ccc(C(=O)NC4CCN(C)CC4)cc3OC)nc2N1C1CCCC1 | active: 16.5 µM | 
26 | CC(C)c1nn(-c2c(Cl)cccc2Cl)c2nc(Cc3ccc(OCCO)cc3)[nH]c(=O)c12 | active: 0.0294 µM | 
27 | Fc1cc(-c2cccc3ncc(-c4cnn(C5CCNCC5)c4)nc23)cc(F)c1CN1CCOCC1 | active: 11.7 µM | 
28 | Cc1ccc(C(=O)N(CCCN)[C@@H](c2nc3cc(Cl)ccc3c(=O)n2Cc2ccccc2)C(C)C)cc1 | inconclusive: 41.5 µM [inhibitor, single point] | 
29 | CN(C)c1ccc(-c2nc3ncc(Cl)c(N4CCN(CC(=O)Nc5nccs5)CC4)c3[nH]2)cc1 | inconclusive: 3.6 µM [inhibitor, partial curve, poor fit] | 
30 | COc1ccc2c3n(c(=NC(=O)c4cccnc4)nc2c1OC)CCN3 | inconclusive: 0.415 µM [inhibitor, partial curve] | 
31 | CN1CCc2c(n(Cc3ccc(C(=O)NO)cc3)c3ccccc23)C1 | inconclusive: 9.3 µM [inhibitor, partial curve, poor fit] | 
32 | O=C(O)CCNc1cc(N2CCc3ccccc3CC2)nc(-c2ccccn2)n1 |  | inactive: 4.69%
33 | COc1ccc(C=Cc2cc(OC)c(OC)c(OC)c2)cc1NC(=O)[C@H](N)CO | inconclusive: 0.147 µM [inhibitor, full curve] | 
34 | CCc1cccc(CC)c1NC(=O)N1Cc2[nH]nc(NC(=O)c3ccc(N4CCN(C)CC4)cc3)c2C1 | active: 10.4 µM | 
35 | Oc1cccc(-c2nc(N3CCOCC3)c3oc4ncccc4c3n2)c1 | inconclusive: 0.208 µM [inhibitor, full curve] | 
36 | C#CCC(Cc1cnc2nc(N)nc(N)c2n1)c1ccc(C(=O)N[C@@H](CCC(=O)O)C(=O)O)cc1 (stereo partly specified) |  | inactive: -6.72%
